# Data taken from the supplement of paper PMC8728848.
# Some of the results follow.
# B1: PitA (Streptococcus oralis), G3F8D8 (protein)
# chain: MNIRFDFKKVQIIARRLVTLLAILFLCAPISLLNADSTTEPQTTLHKTITPISGQDDKYELSLDITSKLGTETQTDPLDVVLVADLSGSMQNQDVQSFDGRTISRIDALKNTLRGTNGRKGLIDTILSNSNNRLSMVGFGGKIDNKKVDQYWDGNKWRLFRPYWPYERMTKYYDGVSPWDDANTILGWSNNARAAKTAVYNMSIAGGNSIGTESGIGTGTNIGAGLTLANQLMGSARSNAKKVVILLSDGFANMVYDANGYTIYNYNNEDPNIETAPQWFWDRLNNNLNSLSYSLAPTLDGFYSIKFRYSNNVDSITSLQYYMRQHNASIPNEIFSANDEDQLRDSFKDITDKILPLGIHHVSIKDVLSKYVQLLPNGSSEFRVVKEKDGSSEILIENQVTFDTKTTSEGLVEVTAKFSPNYSLEDGARYVLKFTVTSSQEALDAIAGDKKLEAGDAEGSDVNKLYSNKGASVTYSYGIGNSQTKTKEYSDNPTFKPSDPLTVPVEVEWQGVTGARTVITADQPSNVELKLVQKNKNGGSDNQDYRKTNVNVSKNVSNETRNFEKVAKGYQYDLIAPDVPAFTKEIKNVGTESKPSFKVIYKQLPSLTIKKVLEAENNLNKEFRIKVKLTSPDSKPLNGTFGEITVVNGEAEIRVEKRKRWEGILSYLPRGTHYKVEEEAASTNGYHVTYENQEGDLNKDETSIVTNHKLPSLSVTKKVTGVFANLLKSFKITINIRDAQNSPLNGTYTATVNNKRTPLQFTNGRASIDLNKDQTIKIYGLPLDSHYTVEEESNSSRGYQVSYENQEGKLDGDKSATVTNNKNSVPETGVDFLSSTLMLGIILPLGGIFFTILLGYLVVHRRK
# Key:
# Assay in all cases: glycan array binding signal (z-score within array); higher = stronger binding
# Details in all cases: glycan notation: IUPAC condensed, linker removed
# [1] = molecular target: Gal(b1-4)GlcNAc(b1-2)[Gal(b1-4)GlcNAc(b1-4)]Man(a1-3)[GlcNAc(b1-4)][Gal(b1-4)GlcNAc(b1-2)Man(a1-6)]Man(b1-4)GlcNAc(b1-4)GlcNAc
# Method in brief: (§1)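 From the Consortium for Functional Glycomics database, 3228 arrays were curated, keeping only those whose protein sequence was available. Binding is given as a within-array Z-score averaged across arrays sharing a protein sequence and across linkers. Negative Z-scores can be read as non-binding.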
# [2] = molecular target: Gal(b1-4)GlcNAc(b1-2)[Gal(b1-4)GlcNAc(b1-4)]Man(a1-3)[GlcNAc(b1-4)][Gal(b1-4)GlcNAc(b1-2)[Gal(b1-4)GlcNAc(b1-6)]Man(a1-6)]Man(b1-4)GlcNAc(b1-4)GlcNAc
# Method in brief: as §1
# [3] = molecular target: Gal(b1-4)GlcNAc(b1-2)[Gal(b1-4)GlcNAc(b1-4)]Man(a1-3)[GlcNAc(b1-4)][Gal(b1-4)GlcNAc(b1-2)[Gal(b1-4)GlcNAc(b1-6)]Man(a1-6)]Man(b1-4)GlcNAc(b1-4)[Fuc(a1-6)]GlcNAc
# Method in brief: as §1
# [4] = molecular target: Gal(b1-4)GlcNAc(b1-2)[Gal(b1-4)GlcNAc(b1-6)]Man(a1-6)[Gal(b1-4)GlcNAc(b1-2)Man(a1-3)]Man(b1-4)GlcNAc(b1-4)GlcNAc
# Method in brief: as §1
# [5] = molecular target: Gal(b1-4)GlcNAc(b1-2)[Gal(b1-4)GlcNAc(b1-6)]Man(a1-6)[Gal(b1-4)GlcNAc(b1-2)Man(a1-3)]Man(b1-4)GlcNAc(b1-4)[Fuc(a1-6)]GlcNAc
# Method in brief: as §1
# [6] = molecular target: Gal(b1-4)GlcNAc(b1-2)[Gal(b1-4)GlcNAc(b1-6)]Man(a1-6)[GlcNAc(b1-4)][Gal(b1-4)GlcNAc(b1-2)Man(a1-3)]Man(b1-4)GlcNAc(b1-4)GlcNAc
# Method in brief: as §1
# [7] = molecular target: Gal(b1-4)GlcNAc(b1-3)Gal(b1-3)GlcNAc
# Method in brief: as §1
# [8] = molecular target: Gal(b1-4)GlcNAc(b1-3)Gal(b1-4)Glc
# Method in brief: as §1
# [9] = molecular target: Gal(b1-4)GlcNAc(b1-3)Gal(b1-4)GlcNAc
# Method in brief: as §1
# [10] = molecular target: Gal(b1-4)GlcNAc(b1-3)Gal(b1-4)GlcNAc(b1-3)Gal(b1-4)GlcNAc
# Method in brief: as §1
# [11] = molecular target: Gal(b1-4)GlcNAc(b1-3)Gal(b1-4)[Fuc(a1-3)GlcNAc(b1-6)]Gal(b1-4)Glc
# Method in brief: as §1
# [12] = molecular target: Gal(b1-4)GlcNAc(b1-3)Gal(b1-4)[Fuc(a1-3)]GlcNAc(b1-3)Gal(b1-4)[Fuc(a1-3)]GlcNAc
# Method in brief: as §1
# [13] = molecular target: Gal(b1-4)GlcNAc(b1-3)GalNAc
# Method in brief: as §1
# [14] = molecular target: Gal(b1-4)GlcNAc(b1-3)[Gal(b1-4)GlcNAc(b1-6)]Gal(b1-4)GlcNAc
# Method in brief: as §1
# [15] = molecular target: Gal(b1-4)GlcNAc(b1-3)[Gal(b1-4)GlcNAc(b1-6)]GalNAc
# Method in brief: as §1
# [16] = molecular target: Gal(b1-4)GlcNAc(b1-3)[GlcNAc(b1-6)]Gal(b1-4)GlcNAc
# Method in brief: as §1
# [17] = molecular target: Gal(b1-4)GlcNAc(b1-6)Gal(b1-4)GlcNAc
# Method in brief: as §1
# [18] = molecular target: Gal(b1-4)GlcNAc(b1-6)GalNAc
# Method in brief: as §1
# [19] = molecular target: Gal(b1-4)GlcNAc(b1-6)[Gal(b1-3)]GalNAc
# Method in brief: as §1
# Gal(b1-4)GlcNAc6P = molecular target: Gal(b1-4)GlcNAc6P
# Method in brief: as §1
# Gal(b1-6)Gal = molecular target: Gal(b1-6)Gal
# Method in brief: as §1
# Gal3S(b1-3)GalNAc = molecular target: Gal3S(b1-3)GalNAc
# Method in brief: as §1
# Gal3S(b1-3)GlcNAc = molecular target: Gal3S(b1-3)GlcNAc
# Method in brief: as §1
# [20] = molecular target: Gal3S(b1-3)[Fuc(a1-4)]GlcNAc
# Method in brief: as §1
# Gal3S(b1-4)Glc = molecular target: Gal3S(b1-4)Glc
# Method in brief: as §1
# Gal3S(b1-4)Glc6S = molecular target: Gal3S(b1-4)Glc6S
# Method in brief: as §1
# Gal3S(b1-4)GlcNAc = molecular target: Gal3S(b1-4)GlcNAc
# Method in brief: as §1
# Gal3S(b1-4)GlcNAc6S = molecular target: Gal3S(b1-4)GlcNAc6S
# Method in brief: as §1
# [21] = molecular target: Gal3S(b1-4)[Fuc(a1-3)]Glc
# Method in brief: as §1
# [22] = molecular target: Gal3S(b1-4)[Fuc(a1-3)]Glc6S
# Method in brief: as §1
binder,measurement,setting,value
B1,glycan array binding signal (z-score),[1],-0.184
same,glycan array binding signal (z-score),[2],1.74
same,glycan array binding signal (z-score),[3],-0.382
same,glycan array binding signal (z-score),[4],-0.017
same,glycan array binding signal (z-score),[5],-0.311
same,glycan array binding signal (z-score),[6],-0.412
same,glycan array binding signal (z-score),[7],0.312
same,glycan array binding signal (z-score),[8],0.615
same,glycan array binding signal (z-score),[9],-0.586
same,glycan array binding signal (z-score),[10],-0.47
same,glycan array binding signal (z-score),[11],-0.432
same,glycan array binding signal (z-score),[12],-0.478
same,glycan array binding signal (z-score),[13],-0.575
same,glycan array binding signal (z-score),[14],-0.764
same,glycan array binding signal (z-score),[15],0.195
same,glycan array binding signal (z-score),[16],-0.64
same,glycan array binding signal (z-score),[17],0.378
same,glycan array binding signal (z-score),[18],0.228
same,glycan array binding signal (z-score),[19],-0.546
same,glycan array binding signal (z-score),Gal(b1-4)GlcNAc6P,-0.111
same,glycan array binding signal (z-score),Gal(b1-6)Gal,0.067
same,glycan array binding signal (z-score),Gal3S(b1-3)GalNAc,-0.557
same,glycan array binding signal (z-score),Gal3S(b1-3)GlcNAc,-0.291
same,glycan array binding signal (z-score),[20],-0.462
same,glycan array binding signal (z-score),Gal3S(b1-4)Glc,0.073
same,glycan array binding signal (z-score),Gal3S(b1-4)Glc6S,-0.213
same,glycan array binding signal (z-score),Gal3S(b1-4)GlcNAc,-0.738
same,glycan array binding signal (z-score),Gal3S(b1-4)GlcNAc6S,0.542
same,glycan array binding signal (z-score),[21],0.218
same,glycan array binding signal (z-score),[22],1.91
